# Assay results reported in PubChem BioAssay (NCATS).
# Several values for one entry are separate records, joined by “and”; a condition that tells them apart may be missing. Equal entries are not always repeated. The list shows a part of the results. The main result of the screen is listed elsewhere. These columns were measured beside it and carry no call. Most of these compounds were active or inconclusive in the main read-out, so they are no random draw. For part of these data: Words in brackets tell the shape of the fitted curve; partial curves, single points and poor fits give uncertain potencies.
# Key:
# [1] = qHTS Assay for Lipid Storage Modulators (AID 1519); conditions: Drosophila S3 cells, BODIPY lipid droplet/cell ratio, laser cytometry, cells loaded with oleic acid
# Summary of the method: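 Cells seeded at 5,000 per well were treated with compounds over a concentration series and loaded with oleic acid (400 uM, as added). Lipid droplet fluorescence (488 nm excitation, 500-530 nm channel) was read by laser-scanning cytometry and normalized to 20 uM Triacsin C.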
# [2] = qHTS Assay for Modulators of Human Peripheral Myelin Protein 22 (PMP22) Expression/Activity (AID 1967); conditions: Cell-based PMP22 reporter, dual-color luciferase ratio
# Summary of the method: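 Quantitative HTS in a mouse Schwann cell line expressing dual click beetle luciferases: Pmp22 promoter (green) and control EF-alpha promoter (red). After 24h treatment, corrected green/red signal ratio gave %Activity relative to untreated cells.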
# [3] = A High-Content qHTS Against Drug Library for the Identification of Small Molecules that Inhibit DYT1 Early Onset Primary Dystonia-Associated Cell Pathology (AID 1645839); conditions: HEK293 Flp-In EGFP-delE TorsinA, punctate imaging, 48 h; measured here: cell count cytotoxicity
# Summary of the method: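 Cells were seeded and left for 24 h, then dosed with compound alongside tetracycline induction of mutant EGFP-TorsinA. They were incubated for 48 h, fixed in 4% paraformaldehyde, permeabilized and imaged for mislocalization (%pathology) and cell count.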
# [4] = Nrf2 qHTS screen for inhibitors: Validation (AID 493153); conditions: A549 ARE-Fluc reporter, 18-24 h; AC50: CellTiter-Fluor fluorescence read, measured here: cytotoxicity CellTiter-Fluor AC50; viability change: measured here: cytotoxicity max response
# Summary of the method: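 Concentration-response test in A549 ARE_Fluc reporter cells (5% FBS OPTI-MEM), compound exposure 18-24 h at 37°C, 5% CO2. Cell viability measured first by CellTiter-Fluor fluorescence; ARE-driven luciferase luminescence then measured as Nrf2 activity.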
# [5] = qHTS Assay for Inhibitors of PDE-IV (AID 607); conditions: HEK293 ACTOne CNG channel cells, membrane potential fluorescence; measured here: parental cell counter-screen;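 further: parental cells stimulated with forskolin 10 µM plus RO 20-1724 100 µM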
# Summary of the method: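 HEK293 ACTOne cells with CNG channel (1000/well), endogenous PDE4; membrane potential dye, compounds up to 22.9 uM final. Fluorescence Ex 535/Em 590; RO 20-1724 (100 uM final) as reference.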
# [6] = S16 Schwann cell PMP22 intronic element beta-lactamase assay (AID 624044); conditions: S16 rat Schwann cells, PMP22 element beta-lactamase FRET, 24 h; measured here: 460 nm blue channel; further: nearly all actives have a fitted effect of over 15% in size
# Summary of the method: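 Beta-lactamase reporter under a PMP22 intronic regulatory element in stable S16 rat Schwann cells; 24 h compound exposure. 460 nm blue signal normalized between DMSO (0%) and potassium clavulanate, with 535 nm FRET tracking viability; curves classed by r2 and response.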
# [7] = target: Catechol O-methyltransferase (Homo sapiens) (UniProt P21964); assay: Confirmatory Screen for Target Class Profiling of Small Molecule Inhibitors of Methyltransferases (AID 1745852); conditions: MTase-Glo luminescence, SAH detection, recombinant enzyme; measured here: COMT inhibition potency;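 further: inhibitor potency for blocking SAH production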
# [8] = target: Histamine N-methyltransferase (Homo sapiens) (UniProt P50135); assay: as above; conditions: MTase-Glo luminescence, SAH detection, recombinant enzyme; measured here: HNMT inhibition potency
# [9] = target: Nicotinamide N-methyltransferase (Homo sapiens) (UniProt P40261); assay: as above; conditions: MTase-Glo luminescence, SAH detection, recombinant enzyme; measured here: NNMT inhibition potency
# [10] = target: Phenylethanolamine N-methyltransferase (Homo sapiens) (UniProt P11086); assay: as above; conditions: MTase-Glo luminescence, SAH detection, recombinant enzyme; measured here: PNMT inhibition potency
# [11] = qHTS assay for small molecule antagonists of androgen receptor signaling (AID 588516); conditions: AR-UAS-bla HEK293, beta-lactamase ratio, antagonist mode, 16 h
# Summary of the method: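 Antagonist mode: inhibition of R1881-stimulated (10 nM final) bla reporter in GeneBLAzer AR HEK 293 cells, 16 h at 37C, compounds titrated. IC50 and efficacy from Hill-equation fits of 405/460–530 nm FRET ratios.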
# [12] = qHTS assay for small molecule antagonists of peroxisome proliferator-activated receptor gamma signaling (AID 588537); conditions: HEK293 PPARg-UAS-bla, beta-lactamase ratio, antagonist mode; measured here: W460 blue channel
# Summary of the method: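 Read-out: CCF4 fluorescence (ex 405, em 460/530 nm) after 2 h at RT. Cells were HEK293 carrying a UAS-bla reporter and treated 16 h at 37 C with compound plus rosiglitazone (50 nM final). Normalized to rosiglitazone and DMSO.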
# [13] = qHTS assay for small molecule antagonists of glucocorticoid receptor signaling (AID 588533); conditions: HeLa MMTV-bla, GRE beta-lactamase ratio, antagonist mode, 18 h; measured here: W530 channel AC50;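 further: cells stimulated with 2 nM dexamethasone as agonist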
# [14] = qHTS assay for small molecule antagonists of retinoid X receptor alpha signaling (AID 588546); conditions: HEK293T RXRa-UAS-bla, beta-lactamase ratio, antagonist mode; measured here: W530 green channel, cytotoxicity proxy;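 further: cells stimulated with 9-cis-retinoic acid as agonist; on the % scale 0 is the no-effect control and ±100 the full control effect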
# Summary of the method: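 Beta-lactamase reporter inhibition, read as CCF4 fluorescence ratio (ex 405, em 460/530 nm) after 2 h at RT. HEK293T UAS-bla cells, 2500/well, were stimulated with 9-cis-RA at 500 or 100 nM final alongside test compound for 18 h at 37 C.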
# [15] = qHTS assay for small molecule antagonists of peroxisome proliferator-activated receptor delta signaling (AID 588535); conditions: HEK293T PPARd-UAS-bla, beta-lactamase FRET ratio, 18 h; 460 nm channel;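 further: cells co-treated with a PPAR-delta agonist as stimulator during compound exposure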
# Summary of the method: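 Beta-lactamase reporter read-out (405 nm excitation, 460/530 nm emission) after CCF4 loading for 2 hrs at RT. HEK293T PPAR-delta-UAS-bla cells, 2% charcoal/dextran FBS, compounds for 18 hrs at 37 C. Hill fit gave IC50 and efficacy.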
# [16] = qHTS assay for small molecule antagonists of vitamin D receptor signaling (AID 588541); conditions: HEK293T VDR-UAS-bla, beta-lactamase ratio, antagonist mode; measured here: W460 blue channel (cell viability)
# [17] = qHTS assay for small molecule agonists of retinoid X receptor alpha signaling (AID 588544); conditions: HEK293T RXRa-UAS-bla, beta-lactamase reporter, 18 h; 530 nm emission
# [18] = measured here: cell count channel max response
# [19] = measured here: lipid channel max response
# [20] = measured here: red reporter channel AC50, EF-alpha promoter control reporter in MSC80 mouse Schwann cells
# [21] = measured here: green reporter channel AC50, mouse Pmp22 promoter in mouse Schwann cells
# [22] = measured here: W460 blue channel fit
# Tags describe the fitted curve by direction and shape.
compound,measurement,setting,value
CCCN(CCC)[C@H]1CCc2c(F)ccc(O)c2C1,max response,[1]; [18],-19%
same,max response,[1]; [19],-18%
same,AC50,[2]; [20],"26.9 µM [rising, partial curve, poor fit]"
CC1OC1P(=O)(O)O (stereo not drawn),max response,[1]; [18],32.6%
same,max response,[1]; [19],32.9%
same,AC50,[2]; [21],"13.5 µM [rising, partial curve, poor fit]"
same,AC50,[2]; [20],"12 µM [rising, partial curve]"
O=[N+]([O-])c1ccc(O[C@@H]2O[C@H](CO)[C@@H](O)[C@H](O)[C@H]2F)c([N+](=O)[O-])c1,max response,[1]; [18],49.9%
same,max response,[1]; [19],50.6%
same,AC50,[2]; [21],"26.9 µM [rising, partial curve, poor fit]"
same,AC50,[2]; [20],"16.9 µM [rising, partial curve, poor fit]"
CC(N)C(=O)OC(C)(C)Cc1ccc(Cl)cc1 (stereo not drawn),max response,[1]; [18],39.4%
same,max response,[1]; [19],39.7%
same,AC50,[2]; [21],"75.7 µM [falling, partial curve]"
same,AC50,[2]; [20],"84.9 µM [falling, single point]"
CCN(CC)CCc1c[nH]c2ccccc12,AC50,[3],"70.8 µM [falling, single point]"
CC(C)NC(C)Cc1ccc(I)cc1 (stereo not drawn),max response,[1]; [18],28.7%
same,max response,[1]; [19],31.7%
same,AC50,[2]; [21],"84.9 µM [falling, single point]"
same,AC50,[2]; [20],"84.9 µM [falling, single point]"
NC(=O)c1cc(N2CC2)c([N+](=O)[O-])cc1[N+](=O)[O-],max response,[1]; [18],40.1%
same,max response,[1]; [19],39.4%
same,AC50,[2]; [20],"75.7 µM [falling, single point]"
same,viability change,[4],-1.06%
CN1C[C@H](CNC(=O)OCc2ccccc2)C[C@H]2c3cccc4c3c(cn4C)C[C@@H]21,AC50,[5],"10 µM [rising, partial curve, poor fit] and 15.8 µM [rising, single point] and 15.8 µM [rising, partial curve, poor fit]"
same,max response,[1]; [18],74.6%
same,max response,[1]; [19],96.1%
CCCCCCCCCCCCCCCC[n+]1ccccc1,AC50,[1]; measured here: lipid (BODIPY) channel AC50,"7.94 µM [falling, partial curve]"
same,AC50,[6],"5.62 µM [falling, full curve]"
CCOC(=O)c1ncn2c1[C@@H]1CCCN1C(=O)c1cc(OC)ccc1-2,max response,[1]; [18],44.8%
same,max response,[1]; [19],48.9%
same,AC50,[2]; [21],"75.7 µM [falling, single point]"
same,AC50,[2]; [20],"75.7 µM [falling, partial curve]"
Fc1ccc(C(OCCN2CCN(C/C=C\c3ccccc3)CC2)c2ccc(F)cc2)cc1,AC50,[5],"5.01 µM [rising, partial curve]"
same,max response,[1]; [18],-32.2%
same,max response,[1]; [19],-114%
N#Cc1cn([C@@H]2O[C@H](CO)[C@H](O)[C@@H]2O)c2ncnc(N)c12,IC50,[7],"34.1 µM [falling, partial curve]"
same,IC50,[8],"34.1 µM [falling, single point]"
same,IC50,[9],"34.1 µM [falling, single point]"
same,IC50,[10],"42.9 µM [falling, single point]"
Nc1ccc([N+](=O)[O-])cc1,AC50,[11]; [22],"50.1 µM [falling, partial curve, poor fit]"
same,AC50,[3],"14.1 µM [falling, partial curve]"
CC(=O)[C@H]1CC[C@H]2[C@@H]3CC[C@H]4C[C@](C)(O)CC[C@]4(C)[C@H]3CC[C@]12C,viability change,[4],2.39%
same,AC50,[3],"35.5 µM [rising, single point]"
O=S(=O)(O)C(F)(F)C(F)(F)C(F)(F)C(F)(F)C(F)(F)C(F)(F)C(F)(F)C(F)(F)F,AC50,[12],"50.1 µM [falling, partial curve, poor fit]"
same,AC50,[3],"35.5 µM [falling, partial curve]"
N#C/C(=C/c1ccc(O)c(O)c1)C(N)=S,IC50,[7],"1.37 µM [rising, full curve]"
CC(C)(C)CC(C)(C)c1ccc(O)cc1,AC50,[13],"50.1 µM [falling, single point]"
same,max response,[14],-32.8%
same,AC50,[3],"39.8 µM [falling, single point]"
CN1C(=S)CN=C(c2ccccc2)c2cc(Cl)ccc21,AC50,[3],"25.1 µM [falling, single point]"
CN1C(=O)[C@@H](NC(=O)c2cc3ccccc3[nH]2)N=C(c2ccccc2)c2ccccc21,AC50,[6],"25.1 µM [falling, single point]"
same,AC50,[3],"1.58 µM [falling, partial curve, poor fit]"
CCCCCCCCc1ccc(O)cc1,AC50,[12],"44.7 µM [falling, partial curve, poor fit]"
same,max response,[14],-5.97%
same,AC50,[3],"7.08 µM [falling, full curve]"
O=C(CCl)c1ccc(Cl)cc1Cl,AC50,[11]; [22],"39.8 µM [falling, partial curve]"
same,AC50,"[11]; measured here: W530 green channel, cytotoxicity/artifact","12.6 µM [rising, full curve, poor fit]"
same,max response,[15],-100%
same,AC50,[16],"17.8 µM [falling, full curve, poor fit]"
same,max response,[17],103%
same,max response,[14],74.2%
same,AC50,[3],"3.55 µM [falling, single point]"
